From patent US10731143B2, “Methods and compositions for stabilizing trans-splicing intein modified proteases” (AGRIVIDA, INC., priority 2014, dated 2020)

Test: Expression of solubility optimized NI and IC in E. coli, total and soluble protein profiles
Type: physicochemical
Conditions: E. coli BL21 Gold (DE3), IPTG induction, lysate clarified at 5000 g
Experimental: For expression in E. coli, nucleotide sequences of the solubility optimized NI and IC were cloned into the pET Duet1 (Novagen) expression vector downstream to the IPTG inducible T7 promoter. NI-DPNG-Trx was cloned between the NcoI and PstI sites, Trx-DPNG-MTT-IC[L122G] was cloned between the NdeI and KpnI sites. Plasmids were introduced into the E. coli strain BL21 Gold (DE3) (Invitrogen).
To express the proteins, overnight starter cultures grown in LB+Carbenicillin (100 mg/L) at 30° C. at 300 rpm were diluted 40-fold into fresh LB+Carb 100 mg/L, incubated further at 30° C. at 300 rpm. When cultures reached OD600 0.6, IPTG was added to a final conc. of 0.5 mg/L to induce expression and the t=0 time point samples were harvested. Aliquots (2 mL) were taken thereof at t=1.5, 3.0, 6.0 and 22.0 hrs. Cell were pelleted and lysed in 200 μL lysis buffer at 30° C., 300 rpm for 1 hour and lysates were split to two aliquots. Lysis buffer was 1:9 mix of [10× Fastbreak:mTSB buffer (150 mM NaCl, 50 mM Trisbase, 2 mM CaCl2, pH=7.5, 1 mM DTT)]+0.2 L/mL Benzonase (Novagen). To determine the total protein profile, to 20 μL cell lysate 20 μL 2×SDS loading dye+5% βME was added, samples were heated at 95° C. for 5 min and a 5 μL aliquot was separated on 12% SDS/PAGE, and gels were Coomassie stained. […]

| Molecule | fraction to which the protein is expressed |
| --- | --- |
| NI: solubility optimized first precursor: Savinase N-extein fused to Gp41-1 N-intein, DPNG linker and Trx; SEQ ID NO: 1 (protein, Synthetic construct, NI-DPNG-TRX) MAEEAKEKYLIGFNEQEAVSEFVEQVEANDEVAILSEEEEVEIELLHEFETIPVLSVELSPEDVDALELDPAISYIEEDAEVTTMAQSVPWGISRVQAPAAHNRGLTGSGVKVAVLDTGISTHPDLNIRGGASFVPGEPSTQDGNGHGTHVAGTIAALNNSIGVLGVAPSAELYAVKVLGASGSGSVSSIAQGLEWAGNNGMHVANLSLGSPSPSATLEQAVNSATSRGVLVVAASGNSGAGSISYPARYANAMAVGATDQNNNRASFSQYGAGLDIVAPGVNVQSTYPGCLDLKTQVQTPQGMKEISNIQVGDLVLSNTGYNEVLNVFPKSKKKSYKITLEDGKEIICSEEHLFPTQTGEMNISGGLKEGMCLYVKEDPNG[sequence of about 100 residues not given] | predominantly expressed to the soluble fraction |
| IC: solubility optimized second precursor: Trx, DPNG linker, mutated Gp41-1 C-intein fused to Savinase C-extein from S317; SEQ ID NO: 2 (protein, Synthetic construct, Trx-DPNG-MTT-IC) [sequence of about 100 residues not given]DPNGMTKKITKIEELDERELIDIEVSGNHLFYANDIGTHNSTYASLNGTSMATPHVAGAAALVKQKNPSWSNVQIRNHLKNTATSLGSTNLYGSGLVNAEAATR | predominantly expressed to the soluble fraction |
